Experimental data: PubChem BioAssay AID686970 (National Center for Advancing Translational Sciences (NCATS), 2013)
In all, about 360,000 compounds went through this assay and about 6,000 (1.7%) were called active. This list was built around the results that the source calls inconclusive (neither active nor inactive); the mix of calls is not that of the screen. Calls come from the whole dose curve; as a rule, active = well fitted cell-killing curve with a large enough effect; inconclusive = small, poorly fitted or top-dose-only effect, or effect the other way; inactive = flat fitted curve, though single readings scatter. No potency is given beside an inconclusive call; the fits are too rough.

test: qHTS for induction of synthetic lethality in tumor cells producing 2HG: qHTS for the HT-1080-NT fibrosarcoma cell line; details: HT-1080-NT fibrosarcoma viability, CellTiter-Glo ATP luminescence, 48 h; activity, negative = less viability: at 46.1 µM (top of the series) unless noted;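 note: NT is the 2HG producing partner of a matched IDH1 knockdown line; nearly all actives have a fitted effect of over 55% in size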;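 for activity, negative = less viability: 0% = DMSO-treated cells and -100% = media-only wells without cells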
Summary of the method: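 Viability of the 2HG-overproducing fibrosarcoma line after 48 hours of compound exposure at 37 degrees C was determined by luminescence with CellTiter-Glo, and concentration-effect curves were then fitted and categorized.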
Potency is the fitted concentration of half-maximal effect; tags give direction and shape of the fitted curve.

SMILES	Potency	activity, negative = less viability
Cc1[nH]c(=S)c(C#N)c(C)c1CC(=O)c1ccc(Br)cc1	inactive	
CCc1ccc2c(c1)NC(=O)C2(C)Cc1ccc(F)cc1 (centres undefined)	inconclusive [cytotoxic, single point]	
Cc1ccc(C(=O)Nc2ncc(C)s2)o1	inconclusive [cytotoxic, single point]	
CC12C=CC(=O)C=C1CCC1C2C(=O)CC2(C)C1CCC2(O)C(=O)CO (centres undefined)	inconclusive [rising, partial curve]	
COc1cc(Br)c(C2C(C#N)=C(N)Oc3n[nH]c(-c4cccnc4)c32)cc1OC (centres undefined)	inconclusive [cytotoxic, single point]	
Cc1ccc(NC(=O)C2CC(=O)N(c3ccc4c(c3)OCCO4)C2)cc1S(=O)(=O)N1CCCCCC1 (centres undefined)	inconclusive [cytotoxic, partial curve]	
CC1(C(=O)NS(=O)(=O)c2ccccc2Cl)CCN1C(=O)C1CCCCC1 (centres undefined)	inactive	
CSc1nnc(C)c(=O)n1COC(=O)c1ccc([N+](=O)[O-])cc1	inconclusive [rising, single point]	
CCCn1c(N)c(C(=O)CN(C)CC(=O)Nc2ccc(C)cc2)c(=O)[nH]c1=O	inactive	
CCOC(=O)/C=c1\s/c(=C\c2ccccc2C)c(=O)n1CC(=O)NCc1ccc2c(c1)OCO2	inconclusive [cytotoxic, single point]	
COc1cc2c(cc1OC)C(c1cc(Br)ccc1F)N(C(=O)CCl)CC2 (centres undefined)	active: 20.6 µM	
OCCN1CCN(Cc2cccc(Oc3ccc(Cl)cc3)c2)CC1	inconclusive [cytotoxic, single point]	
Cc1ccc(-c2n[nH]c(=S)n2-c2ccccc2)cc1	inactive	
Oc1ccc(-c2cn3c(n2)SCC3)cc1O	inconclusive [cytotoxic, single point]	
CCN1CC(c2ccccc2)C(c2ccc(Cl)cc2)=N1 (centres undefined)	inactive	
O=S(=O)(N/N=C/c1ccccc1OCc1ccc(Cl)cc1)c1ccccc1	inconclusive [cytotoxic, single point]	
CCN(CC)CCNCc1ccc(-c2ccc(Cl)cc2)o1	active: 15.8 µM	
O=C(c1cn(-c2ccccc2)nc1-c1cccs1)N1CCN(c2ccccc2)CC1	inconclusive [cytotoxic, single point]	
O=S(=O)(Nc1cccc2ccccc12)c1ccccc1	inactive	
CC(C)c1ccc(S(=O)(=O)Nc2ccc(N3CCOCC3)cc2)cc1	inactive	
CCOC(=O)c1c(C)[nH]c(C(=O)N/N=C/c2ccc(Br)cc2)c1C	active: 0.146 µM	
CCOC(=O)C1=CC[C@H]2c3c(c4ccccc4n3C)C[C@H]1N2C	inactive	
COc1ccc(C)cc1-n1c(SCC(=O)Nc2cccc(C(=O)O)c2)nc2ccccc2c1=O	inactive	
S=C(Nc1ccc(Nc2ccccc2)cc1)NC1CCCCCC1	inconclusive [cytotoxic, single point]	
CC(C)=CCC[C@](C)(O)C1CC[C@]2(C)C1C(O)CC1[C@@]3(C)CCC(O)C(C)(C)C3C(O[C@@H]3OC(CO)C(O)C(O)C3O[C@@H]3OC(C)C(O)C(O)C3O)C[C@]12C (some centres undefined)	inactive	

SMILES	Potency	activity, negative = less viability
O=[N+]([O-])c1cccc(/C=C/c2ccc3cccc(O)c3n2)c1	inconclusive [cytotoxic, partial curve, poor fit]	
O=C1C=C(NCc2ccccc2)c2ccccc2C1=O	active: 3.66 µM	
COc1ccc(C(C)C)cc1S(=O)(=O)n1cnc(C)c1	inconclusive [cytotoxic, single point]	
O=C(COC(=O)c1c[nH]c2ccccc12)NC1CCCC1	inactive	
C=CS(=O)(=O)c1c2cc(OC)ccc2nc2ccc(OC)cc12	inconclusive [cytotoxic, single point]	
Cc1cc(=O)n2nc(N3CCC(C(=O)NCc4cccc(Br)c4)CC3)sc2n1	inconclusive [cytotoxic, single point]	
COC(=O)[C@@]12C[C@@H](CC(=O)NCc3ccccc3)C(=O)N(Cc3cccc4ccccc34)C1=CCC(C)(C)C2	inconclusive [cytotoxic, partial curve, poor fit]	
CCN(CC)CC(O)COc1ccc2c(c1)c(C(C)=O)c(C)n2-c1ccccc1 (centres undefined)	inconclusive [cytotoxic, single point]	
CC1(C(=O)NCc2ccccc2)CCC(=O)N1C1CC1 (centres undefined)	inconclusive [rising, single point]	
O=[N+]([O-])c1ccc(-[n+]2ccc3ccccc3c2)c([N+](=O)[O-])c1	inconclusive [cytotoxic, single point]	
Cc1ccc(C(=O)N/N=C/c2ccc(-c3cccc(Cl)c3)o2)cn1	active: 25.9 µM	
N=c1c2c(-c3ccccc3)c(-c3ccccc3)n(Cc3ccccc3)c2ncn1CCO	inactive	
CCOc1ccccc1NC(=O)C1CCCCN1S(=O)(=O)c1ccccc1 (centres undefined)	inactive	
O=C(Nc1ccccc1)C(=O)Nc1cccnc1	inconclusive [cytotoxic, single point]	
Cc1ccc(CN2C(=O)c3ccccc3NC2c2cc(Br)ccc2O)cc1 (centres undefined)	inconclusive [cytotoxic, single point]	
COc1ccc(-c2csc3nc(-c4ccc(C)cc4)oc(=O)c23)cc1OC	inactive	
COc1ccc(-n2c(=S)[nH]c3cc(C(=O)NCc4ccc(F)cc4)ccc3c2=O)c(OC)c1	inactive	
Cc1ccc(-c2nnn(CC(=O)N(c3ccccc3)C(C(=O)NC(C)(C)C)c3cccs3)n2)o1 (centres undefined)		inconclusive: -30.6% [cytotoxic]
COc1cc(NC(=O)COc2ccccc2[N+](=O)[O-])ccc1NC(=O)c1cccs1	inconclusive [cytotoxic, single point]	
Cc1ccc(NC(=O)CSc2nc(N)c3cc4c(nc3n2)CCCC4)cc1	inconclusive [cytotoxic, single point]	
CCN(C(=O)c1ccco1)c1nnc(-c2cccnc2)s1	inactive	
CCOC(=O)[C@]12CCCC=C1N(CCC1=CCCCC1)C(=O)[C@H](CC(=O)NCCCCc1ccccc1)C2	inconclusive [cytotoxic, partial curve]	
CCOc1ccc(C(=O)NCC(=O)NCC(c2ccco2)N2CCCCC2)cc1 (centres undefined)	inactive	
O=C(Nc1cccc(-c2cccc(Cl)c2)c1)C1CCN(C2CCC2)CC1	active: 25.9 µM	
CC(C)(C)c1ccc(NC(=S)NCc2cccnc2)cc1	inactive	

SMILES	Potency	activity, negative = less viability
CCCN(CCC)C(=O)Nc1cc(Cl)ccc1OC	inconclusive [rising, single point]	
CCCN1CCC(=NNc2ccc(S(=O)(=O)N3CCOCC3)cc2[N+](=O)[O-])CC1	inconclusive [cytotoxic, single point]	
CCOC(=O)c1ccccc1NC(=O)CSc1ncc(C(=O)OCC)c(N)n1	inactive	
Cc1ccc(CCNS(=O)(=O)c2cc(Br)cnc2N)cc1	inconclusive [cytotoxic, single point]	
CCC(Sc1nc(-c2ccccc2)c(-c2ccccc2)[nH]1)C(=O)O (centres undefined)	inactive	
O=C(CCC(=O)N1CCOCC1)NCc1cccc(C(F)(F)F)c1	inactive	
CN(C)S(=O)(=O)c1ccc(C(=O)Nc2nnc(SCc3ccccc3)s2)cc1	inactive	
CC[C@H](C)C(=O)O[C@H]1CCC=C2C=C[C@H](C)[C@H](CC[C@@H]3C[C@@H](O)CC(=O)O3)[C@H]21	active: 4.11 µM	
Cc1cccc(NC(=O)NNC(=O)c2cc(-c3ccccc3Cl)nc3ccccc23)c1	inconclusive [cytotoxic, single point]	
CCN(CC)CCN(C(=O)c1ccc2ccccc2c1)c1nc2cc3c(cc2s1)OCO3	inactive	
CCOC(=O)N1CCc2cc(OC)c(OC)c3c2c1cc1cc(OC)c(OC)cc13	inconclusive [cytotoxic, partial curve]	
NC(=O)c1ccc(-n2nnnc2SCc2ccccc2)cc1	inactive	
Cc1ccc(C(C)C)c(OCc2nn(CC(=O)c3ccc(Cl)cc3)c3[n+]2CCCCC3)c1	inconclusive [cytotoxic, single point]	
O=C(Nc1ccccc1C(F)(F)F)c1cc2ncc(CCCl)cn2n1	inactive	
Clc1ccc(CSc2nnc(-c3ccccn3)n2Cc2cccs2)cc1Cl	inconclusive [cytotoxic, single point]	
Cc1nc2cc(-c3cccc(F)c3)nn2c(N2CCN(C(=O)c3ccco3)CC2)c1C	inactive	
C/C(Cn1cnc([N+](=O)[O-])n1)=N\NC(=O)c1ccc(Br)cc1	inactive	
O=C(NC(Cc1ccccc1)C(=O)N1CCCCC1)c1ccccc1 (centres undefined)	inactive	
N#CC1=C(N)Oc2cc(N)ccc2C1c1ccc(F)cc1 (centres undefined)	inactive	
COc1ccc(CC(=O)c2ccc(OC)c(OC)c2C)cc1OC	inconclusive [cytotoxic, single point]	
O=S(=O)(c1ccc(NC(=S)NC2CC2)cc1)N1CCOCC1		inconclusive: 30.3%
Nc1c(C(=O)O)sc2nc(-c3ccccc3)cc(-c3ccccc3)c12	inconclusive [rising, partial curve]	
CCc1ccc2nc(N(CCCN(C)C)C(=O)c3ccc(C(=O)c4ccccc4)cc3)sc2c1	inconclusive [cytotoxic, single point]	
O=C(OCc1ccccc1)c1ccc(NCc2cc(O)ccc2O)cc1	active: 9.2 µM	
